In paper PMC4336329 (PLoS ONE, 2015):
The campaign covered roughly 310,000 compounds. About 2,200 (0.71%) showed an effect of 50% or more. Effects have a minus sign here. Some of the results follow.

biological target: human ether-à-go-go-related gene (hERG) potassium channel (human, UniProt Q12809); test: primary screen, population patch clamp on CHO cells stably expressing hERG
Sequence (Q12809 whole entry, looked up): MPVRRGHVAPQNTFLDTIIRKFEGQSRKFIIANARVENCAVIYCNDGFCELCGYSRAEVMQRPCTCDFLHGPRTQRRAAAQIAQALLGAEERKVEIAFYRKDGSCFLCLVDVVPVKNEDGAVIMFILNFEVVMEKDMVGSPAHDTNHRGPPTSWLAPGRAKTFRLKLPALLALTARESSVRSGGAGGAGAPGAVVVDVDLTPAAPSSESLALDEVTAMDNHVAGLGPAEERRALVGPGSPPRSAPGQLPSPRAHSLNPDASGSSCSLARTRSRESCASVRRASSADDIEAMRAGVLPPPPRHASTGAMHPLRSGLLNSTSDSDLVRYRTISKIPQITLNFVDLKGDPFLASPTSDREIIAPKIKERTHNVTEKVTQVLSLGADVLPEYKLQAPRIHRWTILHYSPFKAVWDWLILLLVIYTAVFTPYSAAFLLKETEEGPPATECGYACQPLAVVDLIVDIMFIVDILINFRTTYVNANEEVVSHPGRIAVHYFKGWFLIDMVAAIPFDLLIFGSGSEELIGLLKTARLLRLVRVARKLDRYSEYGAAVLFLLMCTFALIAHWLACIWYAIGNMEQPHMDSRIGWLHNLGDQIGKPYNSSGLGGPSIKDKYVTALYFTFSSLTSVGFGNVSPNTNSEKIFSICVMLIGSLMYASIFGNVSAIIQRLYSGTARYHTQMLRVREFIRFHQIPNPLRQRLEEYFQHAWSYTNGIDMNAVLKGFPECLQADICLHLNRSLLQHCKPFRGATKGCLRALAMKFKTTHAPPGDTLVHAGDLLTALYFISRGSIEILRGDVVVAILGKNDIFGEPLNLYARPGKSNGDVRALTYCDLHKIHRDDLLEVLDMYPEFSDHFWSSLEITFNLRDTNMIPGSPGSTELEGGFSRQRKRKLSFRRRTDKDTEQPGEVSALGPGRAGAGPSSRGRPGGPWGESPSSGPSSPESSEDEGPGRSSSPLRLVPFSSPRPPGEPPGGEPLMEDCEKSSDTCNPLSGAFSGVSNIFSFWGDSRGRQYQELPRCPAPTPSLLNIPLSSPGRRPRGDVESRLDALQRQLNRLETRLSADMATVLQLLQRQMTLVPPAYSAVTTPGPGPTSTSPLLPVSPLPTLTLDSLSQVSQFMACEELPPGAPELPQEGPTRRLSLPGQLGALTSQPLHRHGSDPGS

SMILES | hERG current change (%, negative = inhibition) at 1uM
COc1cc(C2c3sc(=O)[nH]c3SC3C(=O)N(c4ccc(C)cc4)C(=O)C32)ccc1O (stereo not shown) | 7.83%
COc1ccc(Cc2nnc(NC(=O)Nc3ccccc3)s2)cc1OC | 16.7%
S=c1[nH]nc(-c2ccncc2)n1/N=C/c1cccc2ccccc12 | 7.22%
CC(Cc1cccs1)NC(=O)Nc1ccc(Cl)cc1 (stereo not shown) | 7.83%
Cc1noc(C)c1COc1ccc(C(=O)OCC(=O)NCCN2C(=O)CSC2=O)cc1 | -0.892%
FC(F)(F)c1cccc(N2CCN(C3CC4CCC3C4)CC2)c1 (stereo not shown) | 13.7%
CCC(CO)Oc1cc(NC(=O)c2ccccc2)c2ncn(C(C)C)c2c1 (stereo not shown) | 9.51%
Cc1cc(NS(=O)(=O)c2ccc(NC(=O)CCCOc3ccccc3C)cc2)no1 | 6.24%
CCN(CC)CCNC(=O)c1cn(CC)c2ccc(S(=O)(=O)N(C)C3CCCCC3)cc2c1=O | 9.42%
O=C(c1ccccc1)N1CCN(C(=O)c2ccccc2Br)CC1 | 14.6%
Cc1ccc(/C=C2\SC(=S)N(Cc3ccccc3)C2=O)o1 | 10.3%
CCc1cc(=S)n2c([nH]c3ccccc32)c1C#N | 23%
c1ccc(CNc2ncnc3sccc23)cc1 | 11.6%
CCNc1c(C(=O)O)ccc2c1C(=O)c1ccccc1C2=O | 18.7%
CC1CCCC(NC(=O)c2cccc(S(=O)(=O)N3CCCCC3)c2)C1C (stereo not shown) | 5.31%
COc1ccc(CCNC(=O)Cn2c(=O)cnc3ccccc32)cc1 | -7.02%
Cc1ccc(NC(=O)Nc2ccc([N+](=O)[O-])cc2)nc1 | 8.38%
CCCC[n+]1ccn(-c2nc3ccccc3nc2[N-]S(=O)(=O)c2ccc(C)cc2)c1 | 1.49%
CC(C)Cc1nnc(NC(=O)c2cc3c(s2)CCC3)s1 | 15.9%
Cc1ccc(C)c(OCCCC(=O)N2CCOCC2)c1 | -16.2%
O=C(Nc1sc2c(c1C(=O)NCC(O)CO)CCCC2)c1ccccc1 (stereo not shown) | 11%
c1nc(N2CCOCC2)c2c3c(sc2n1)CCCC3 | 7.09%

SMILES | hERG current change (%, negative = inhibition) at 1uM
CC(=O)N1CCN(C(=O)C2(NC(=O)Nc3ccccc3Cl)CCCCC2)CC1 | 14.2%
O=C(C1CCN(c2nnnn2-c2ccccc2)CC1)N1CCN(c2ccccc2)CC1 | -0.0552%
CCCc1cc(=O)[nH]c(N2CCN(Cc3ccc4c(c3)OCO4)CC2)n1 | 1.94%
O=C(O)c1ccc(COc2c(F)c(F)c(F)c(F)c2F)o1 | -1.1%
O=C(NCc1n[nH]c(=S)n1-c1ccc(Cl)c(Cl)c1)c1ccco1 | 18.3%
Cc1ccc(CNC(=O)COC(=O)C2CCN(S(=O)(=O)c3cccs3)CC2)cc1 | -13.2%
O=c1n(-c2ccc(Br)cc2)cnn1-c1ncccc1[N+](=O)[O-] | 7.74%
N#Cc1ccncc1Sc1ccc(Cl)cc1 | 9.46%
COc1ccc(S(=O)(=O)NCC2CCC(C(=O)NCc3ccco3)CC2)cc1 (stereo not shown) | 16.1%
CC(C)OCCCNC(=O)c1sc(=S)n(C)c1N | 1.04%
O=C(O)Cn1c(SCCOc2ccccc2)nc2ccccc21 | 4.29%
CCCCCN(C(=O)NC(=O)Nc1ccccc1C)S(C)(=O)=O | 11.3%
CCN(CC)S(=O)(=O)c1ccc(Cl)c(NC(=O)COC(=O)c2cc(-c3ccccc3Cl)nc3ccccc23)c1 | 11.3%
CN(C)C(=O)c1cc2cc(Br)ccc2s1 | 6.96%
C/C(=N\NC(=O)c1nnn(-c2nonc2N)c1CN1CCc2ccccc21)c1ccccc1O | 15.2%
CCN1C(=O)[C@H]2[C@@H](c3ccc(Cl)cc3)N3C(=O)CN(CC4CC4)C(=O)[C@@]3(Cc3ccccc3)[C@H]2C1=O | -14%
O=C(N/N=C/c1cn(-c2ccccc2)nc1-c1ccc(F)cc1)c1ccc(Br)o1 | 22.1%
O=C(CCc1nc(-c2ccccc2F)no1)NC1CCCCC1 | 13.4%
COc1ccc2nc(NC(=O)CCc3cc(OC)c(OC)c(OC)c3)sc2c1 | 6.05%
C/C(=N\Nc1nc(N2CCOCC2)nc(N2CCOCC2)n1)c1cccc([N+](=O)[O-])c1 | 17.5%
CCOc1ccc2nc(SC3CC(=O)N(c4ccc(C)cc4)C3=O)sc2c1 (stereo not shown) | -9.93%
COc1ccccc1CC(=O)N1CCN(c2ccccc2F)CC1 | 4.18%

SMILES | hERG current change (%, negative = inhibition) at 1uM
CC(=O)Nc1ccc(/C=C2\CCc3ccccc3C2=O)cc1 | 11.9%
COc1ccc(-c2cc(C(=O)NCCCN3CCOCC3)c3ccccc3n2)cc1OC | 3.09%
O=C(c1ccccc1)N1CCCN(c2nccc(C(F)(F)F)n2)CC1 | 8.86%
O=C(CCC(=O)c1ccc(F)cc1)NCC1(N2CCCCC2)CCCCC1 | -7.18%
CC1(C)NC(=O)N(CC(=O)N2CCN(c3cccc(C(F)(F)F)c3)CC2)C1=O | 13.4%
C=C1CCC[C@]2(C)C[C@H]3OC(=O)C(CNCCN(CC)CC)[C@H]3CC12.O=C(O)C(=O)O (stereo partly shown) | 17.9%
COc1ccc(S(=O)(=O)Nc2cccnc2)cc1OC | 10.4%
CCOc1ccc(OCCCC(=O)ON=C(N)c2ccccc2Cl)cc1 | 12.7%
Cc1ccc2cccc(OCC(=O)NCc3ccco3)c2n1 | -14.3%
COc1cccc(CCNc2ccc(N3C(=O)CC(C)C3=O)cc2[N+](=O)[O-])c1 (stereo not shown) | 13.7%
COc1ccc(C(=O)NCCOc2ccccc2Cl)c(OC)c1OC | 11.4%
CCOC(=O)C1CCN(S(=O)(=O)c2ccc(-c3ccc(=O)[nH]n3)o2)CC1 | -22.4%
CCOC(=O)c1c(NC(=O)CSc2nnc(-c3ccncc3)n2Cc2ccco2)sc(C)c1C | 5.8%
N/C(CN1CCCC1=O)=N\OC(=O)c1ccccc1Cl | 0.703%
O=C(COc1ccccc1)N1CCN=C1c1ccccc1 | -41.6%
O=C(C1CCN(Cc2ccccc2O)CC1)N1CCN(Cc2ccc3c(c2)OCO3)CC1 | 8.96%
COCC(=O)Nc1nnc(CCc2ccccc2)s1 | 2.38%
Cc1ccc(-c2nnc(-c3ccccc3)c(N3CCOCC3)n2)cc1 | 1.89%
CCCCCC(=O)Oc1cccc(N2C(=O)C3CCCCC3C2=O)c1 (stereo not shown) | 17.9%
Cc1cccc(Nc2nnc(SCC(=O)N(C)C3CCS(=O)(=O)C3)s2)c1C (stereo not shown) | 1.93%
CN(C(=O)CSc1nc(-c2ccccc2)cn1N)C(c1ccccc1)c1ccccc1 | 12%
O=C(/C=C/c1ccco1)NC(=S)Nc1ccc(N2CCOCC2)c(Cl)c1 | -1.05%

SMILES | hERG current change (%, negative = inhibition) at 1uM
CS(=O)(=O)N(CC(=O)O)c1cccc(Cl)c1 | 9.42%
CC(C)(C)C(=O)CSc1nc2ncc(Br)cc2[nH]1 | 3.68%
CCC(Sc1nc2ccc(C)cc2[nH]1)C(=O)O (stereo not shown) | 9.83%
Oc1ccc(C[C@H]2CNCCN2CCc2cc(C(F)(F)F)cc(C(F)(F)F)c2)cc1 | -2.03%
Br.O=C(Cn1c(NCCCO)nc2ccccc21)c1ccc([N+](=O)[O-])cc1 | -3.14%
COC(=O)c1ccc(-n2c(C)nc(=O)c(-c3ccccc3)c2C)cc1 | 9.49%
COc1ccc(NC(=O)CSc2nnc(C3CCCCC3)n2-c2ccccc2)cc1 | 6.01%
Clc1ccc(-c2csc(N/N=C/c3ccc4c(c3)OCO4)n2)cc1 | 1.89%
Cc1nnc(SCC(=O)Nc2ccc(N3CCN(S(C)(=O)=O)CC3)cc2)o1 | 11.3%
Cc1nc2cc(-c3ccc(Br)cc3)[nH]n2c(=O)c1Cl | 18.6%
O=C(NCc1ccc(F)cc1)C1CCC(=O)N1CCc1ccccc1 (stereo not shown) | 1.76%
O=C(N/N=C/c1ccco1)C1CCCC1 | 17.2%
CCOC(=O)C1(CCCc2ccccc2)CCN(C(=O)C(C)n2cncn2)CC1 (stereo not shown) | 0.0335%
COc1cccc(CNC(=O)Cc2c(C(=O)O)[nH]c3ccccc23)c1 | 9.07%
C=C(C)[C@@H]1CC[C@]2(C(=O)O)CC[C@]3(C)[C@H](CC[C@@H]4[C@@]5(C)CC[C@H](O)C(C)(C)[C@@H]5CC[C@]43C)[C@@H]12 | 0.617%
CCOc1ccc(C(=O)NCC(=O)N2CCN(c3ccc(C(F)(F)F)cn3)CC2)cc1 | 7.6%
O=S(=O)(c1ccccc1)N1CCN(CCO)CC1 | 8%
CCCCNC(=O)Nc1ccccc1CC | 11.2%
CC1CCN(Cc2c(C(=O)N/N=C/c3ccc(C(C)C)cc3)nnn2-c2nonc2N)CC1 | 11.6%
CC(=O)Nc1ccc(S(=O)(=O)Nc2ccc(NC(=O)c3ccco3)cc2)cc1 | 8.53%
CC1(C)Cc2c(cnn2-c2ccc(F)cc2)C(NC(=O)C2=NNC(=O)CC2)C1 (stereo not shown) | -52.1%
S=C(NCCc1ccccc1)Nc1ccccn1 | 14.6%
